{"source": "PubChem BioAssay (NCI)", "note": "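96-well plates; 48 h exposure; 5 concentrations. Endpoints by linear interpolation between flanking doses. Not reached: highest tested concentration assigned. At the GI50, growth is halved. TGI: total growth inhibition.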", "data": [{"test_system": "NCI-H322M lung", "assay": "growth of human tumour cells (NCI), 48 h", "units": {"TGI": "µM", "GI50": "µM"}, "values": [{"smiles": "CCCCCCCCCCCCOCC1(COCCCCCCCCCCCC)COC(c2ccc(N)cc2)OC1", "TGI": "> 100"}, {"smiles": "O=C1C(=O)C2(CC1S(=O)(=O)c1ccccc1)c1ccccc1-c1ccccc12", "note": "(configuration not stated)", "TGI": 53.3}, {"smiles": "CCOC1Oc2ccc(C)cc2C(=O)/C1=C\\Nc1ccc(S(N)(=O)=O)cc1", "note": "(configuration not stated)", "GI50": 14.2, "TGI": "> 50"}, {"smiles": "CCCc1nc2c(n1CC)C(=O)c1ccccc1C2=O", "TGI": "> 100"}, {"smiles": "C[As](C)SC1OCC(O)C(O)C1O", "note": "(configuration not stated)", "GI50": 2.66, "TGI": 10.7}, {"smiles": "CCCCOC/N=C(/N)NC#N", "TGI": "> 100"}, {"smiles": "COc1ccccc1NC(=O)C1=C(C)NC(C)=C(C(=O)Nc2ccccc2OC)C1c1ccco1", "TGI": "> 100"}, {"smiles": "Cc1ccc2ccc(-c3ccccc3)c3c2c1C(=O)c1ccccc1C3=O", "TGI": "> 100"}, {"smiles": "COc1cc(-c2nn(-c3cccc(NC(=O)CCNc4ccc(N5CCOCC5)cc4)c3)cc2-c2ccncc2)ccc1Cl", "GI50": 3.25, "TGI": "> 100"}, {"smiles": "CC(=O)Nc1cccc(N2C(=O)/C(=C\\c3cccc(Oc4ccccc4)c3)SC2c2ccccc2)c1", "note": "(configuration not stated)", "TGI": "> 100"}, {"smiles": "O=C1c2c(Br)sc(Br)c2[C@@H](O)[C@H]1O", "TGI": 30.9}, {"smiles": "CN(C)c1ccc(-c2ccc(-c3ccc(C(=N)N)cn3)o2)cc1", "GI50": 1.44, "TGI": 2.85}, {"smiles": "CC(=O)N1C(Nc2nccs2)CCN1c1ccccc1", "note": "(configuration not stated)", "TGI": "> 10"}, {"smiles": "COc1ccc(C2C3CCc4ccccc4C3=NN2S(=O)(=O)c2cccc(C(=O)O)c2OC)cc1", "note": "(configuration not stated)", "TGI": "> 100"}, {"smiles": "O=[N+]([O-])c1cccc(Nc2nc(Cl)nc(Cl)n2)c1", "TGI": "> 100"}, {"smiles": "COc1ccc(-c2c(N)noc2-c2cc(OC)c3c(c2)OCCO3)cc1", "GI50": 19.3, "TGI": "> 100"}, {"smiles": "Cc1cc(S(N)(=O)=O)c(S/C(=N\\NS(=O)(=O)c2ccccc2)c2ccc(Cl)cc2)cc1Cl", "GI50": 64.3, "TGI": "> 100"}, {"smiles": "COC(=O)/C=C/[C@@H]1[C@H](C)N1S(=O)(=O)c1ccc(C)cc1", "note": "(some centres not stated)", "TGI": "> 100"}, {"smiles": "O=C1OC([C@H](O)c2cccnc2)c2ccccc21", "note": "(some centres not stated)", "TGI": "> 10"}, {"smiles": "COc1ccc(C2NC(=S)NC3=C2CCOc2c3ccc3ccccc23)cc1", "note": "(configuration not stated)", "GI50": 60, "TGI": "> 100"}, {"smiles": "COC(=O)C(=O)C(C(=O)C(=O)Nc1ccc(C)cc1C)c1nc2ccc(Cl)cc2[nH]c1=O", "note": "(configuration not stated)", "TGI": "> 100"}, {"smiles": "Nn1c(-c2ccc(Cl)cc2)nc2c(-c3ccc(Cl)cc3)nc3ccc(Cl)cc3c2c1=O", "GI50": 73.2, "TGI": "> 100"}, {"smiles": "CN(N=O)c1nc2c(C(N)=O)ncn2s1", "TGI": "> 100"}, {"smiles": "COc1ccc2[nH]c3c(c2c1)[C@H]1CCC(C(C)(C)C)C[C@H]1[C@H]1C(=O)N(c2ccccc2)C(=O)[C@@H]31", "note": "(some centres not stated)", "TGI": "> 100"}, {"smiles": "COc1ccc(C2Cc3cc(OC)c(OC)c(OC)c3C2)cc1", "note": "(configuration not stated)", "TGI": "> 100"}, {"smiles": "CCc1ccc2c(c1)N(CCO)C1=C(C(=O)OC1)C2c1cc(OC)c(OC)c(OC)c1", "note": "(configuration not stated)", "GI50": 0.367, "TGI": "> 50"}, {"smiles": "COc1cc(/C=C2\\SC(N3CCCCC3)=NC2=O)ccc1OCCCCCCOc1ccc(/C=C2\\SC(N3CCCCC3)=NC2=O)cc1OC", "GI50": 11.7, "TGI": 43.2}, {"smiles": "COc1cc(-c2nn(-c3cccc(NC(=O)CCN4CCN(c5ccccc5)CC4)c3)cc2-c2ccncc2)ccc1Cl", "GI50": 3.06, "TGI": "> 100"}, {"smiles": "O=[N+]([O-])/C=C/c1ccc(Cl)cc1[N+](=O)[O-]", "GI50": 13.9, "TGI": 28.3}, {"smiles": "O=[N+]1[C@H](c2ccccc2)[C@H](c2ccccc2)N1[O-]", "TGI": 31.4}, {"smiles": "COc1ccc(-c2csc(Nc3cccc(-c4csc(C)n4)c3)n2)cc1", "GI50": 0.005, "TGI": 8.7}, {"smiles": "CC1OC(OC2C(O)C(O)C(O)C(O)C2O)C(N)CC1N=C(N)C(=O)O", "note": "(configuration not stated)", "TGI": "> 100"}, {"smiles": "Cc1ccc(S(=O)(=O)N/N=C2/CCC3(O)CC2(C)CCC2[C@H]3CC2(C)C)cc1", "note": "(some centres not stated)", "TGI": "> 100"}, {"smiles": "O=C1Nc2ccc3c(c2/C1=C\\c1cc2c(cc1Br)OCO2)OCO3", "GI50": 0.846, "TGI": 3.21}, {"smiles": "C1=CC2CCC1CN2CCC1CNc2ccccc21", "note": "(configuration not stated)", "TGI": "> 100"}, {"smiles": "NC(=O)[N+](=CC(=S)Nc1ccccc1Cl)C(N)=O", "TGI": "> 100"}, {"smiles": "COc1ccc(COCC[C@H](C)OC2OC(CO)C(O)C(O)C2O)cc1", "note": "(some centres not stated)", "TGI": "> 100"}, {"smiles": "CC(C)[Si]1(C(C)C)OCC2OC(n3ccc(=O)[nH]c3=O)C([Se]c3ccccc3)C2O[Si](C(C)C)(C(C)C)O1", "note": "(configuration not stated)", "TGI": 27.1}, {"smiles": "Cn1cnnc1[S-].[Au+].c1ccc([PH+](c2ccccc2)c2ccccc2)cc1", "GI50": 1.69, "TGI": 3.23}, {"smiles": "CC1=CCC(C(C)(C)NC(=O)c2ccccc2)C/C1=N/O", "note": "(configuration not stated)", "TGI": "> 100"}, {"smiles": "COC(=O)c1c(O)ccc2c1c1c(n2Cc2cc(OC)cc(OC)c2)C(=O)c2ccccc2C1=O", "TGI": 65.1}, {"smiles": "COc1ccc(/C=N/NS(=O)(=O)c2ccccc2)cc1", "TGI": "> 100"}, {"smiles": "COc1cc(OC)c2c(=O)c3cccc([N+](=O)[O-])c3n(C)c2c1", "TGI": "> 100"}, {"smiles": "Cn1nnc2c3c(N(CCO)CCO)ccnc3ccc21", "TGI": "> 100"}, {"smiles": "Clc1ccc(CN2CCCN(Cc3ccc(Cl)cc3)C2c2cc3ccccc3c3ccccc23)cc1", "TGI": "> 100"}, {"smiles": "N#Cc1cc(S(=O)(=O)Nc2nc3cc(Cl)ccc3o2)c(SCc2ccccc2)cc1Cl", "GI50": 10.9, "TGI": 22.9}]}]}
